Measured values taken from ChEMBL document CHEMBL4513135, “CO-ADD screening of IQOG CSIS (Spain) compounds”.
Values joined by “and” are separate entries in the source; they are usually repeats but may differ in a detail not shown here. Identical values can stand only once. This is one part of the list. Potency and affinity values are given separately.

Tested on: Pseudomonas aeruginosa
Conditions: Concentration 32 ug.mL-1, ASSAY_TEST Inhibition of Bacterial Growth, detection method Absorption (OD600), MEDIA CAMHB, plate type 384well, NBS, CORNING #3640, time 18 hr

Row | Structure (SMILES) | Inhibition | Inhibition (32 ug/mL)
1 | Cl.ClCCN1CCCCC1 | 14% | 
2 | Nc1c2c(nc3c1C(c1ccccc1)CC(=O)N3)CCCC2 (centres undefined) | 28.15% | 
3 | N#CCC(=O)c1ccccc1 | 13.15% | 
4 | C#CCN1CCc2nc3nc(Cl)c(C#N)cc3c(N)c2C1 | 11.93% | 
5 | CNCc1cn(C)c2ccc(OC)cc12.Cl | 37.31% | 
6 | CN1CC=C(c2cccn2C)CC1 | 7.54% | 
7 | N#CC(C#N)=Cc1ccc(Cl)cc1 | 29.89% | 
8 | NNCCCc1c[nH]c2ccccc12.O=C(O)/C=C/C(=O)O | 33.03% | 
9 | CCOC(=O)C1=C(C)NC(=O)CC1c1ccccc1 (centres undefined) | 11.3% | 
10 | Cc1nc(N)c(C#N)cc1C(=O)O | -2.81% | 
11 | NNC(=O)c1cn(Cc2ccccc2)c2ccccc12 | 26.56% | 
12 | CCOC(=O)C1=C(OC)OC(=O)CC1c1ccccc1 (centres undefined) | 11.78% | 
13 | Cc1ccc(S(=O)(=O)N2[C@H]3CC[C@@H]2CC3)cc1 | 21.31% | 
14 | CN1CC=C(c2cccn2C)CC1.Cl | 11.8% | 
15 | CC1CC(=O)Nc2nc3c(c(N)c21)CCCC3 (centres undefined) | 37.97% | 
16 | N#Cc1cc(C#N)c(N2C3CCC2CC3)nc1N | -13.77% | 
17 | Cc1ccc(C=C(C#N)C#N)cc1 | 19.72% | 
18 | Cc1ccccc1C=C(C#N)C#N | 10.15% | 
19 | CCOC(=O)C1=C(C)OC(=O)CC1c1ccccc1 (centres undefined) | 18.81% | 
20 | [N-]=[N+]=NCC(=O)c1ccc(Br)cc1 | 20.32% | 

Row | Structure (SMILES) | Inhibition | Inhibition (32 ug/mL)
21 | O=C(N1[C@H]2CC[C@@H]1C(c1nnn[nH]1)C2)C(F)(F)F (some centres undefined) | 38.45% | 
22 | O=C(CBr)NCc1ccccc1 | 30.11% | 
23 | OCC(Cc1cnc[nH]1)NCc1ccccc1 (centres undefined) | 33.69% | 
24 | C#CCN1CCc2nc3ncccc3c(N)c2C1.Cl | 18.09% | 
25 | CCOC(=O)c1cn(Cc2ccccc2)c2ccccc12 | 26.02% | 
26 | CCOc1nc2nc(C)c(C(=O)O)cc2c(-c2ccccc2)c1C#N | 20.21% | 
27 | CN(C)C(=O)Oc1ccc(CCl)c2cccnc12 | 31.55% | 
28 | COc1cc(C2C(C#N)=C(N)Oc3c2ccc2ccccc32)cc(OC)c1OC (centres undefined) | 16.26% | 
29 | C#CCN(C)Cc1cc2cc(OCc3ccc(OC(=O)N(C)C)c4ncccc34)ccc2n1C | 5.82% | 
30 | C#CCN1CCc2nc(N)c(C#N)c(-c3ccccc3)c2C1 |  | 1.68% and 1.66%
31 | NNC(=O)c1cccnc1 [NICOTINIC ACID HYDRAZIDE] | 18.01% | 
32 | C#CCN1CCc2nc3nc(OC)c(C#N)cc3c(N)c2C1 | 27.74% | 
33 | CCOC(=O)c1cc2cc(OC(=O)NC3CCN(Cc4ccccc4)CC3)ccc2[nH]1 | 12.49% | 
34 | Nc1c2c(nc3ccccc13)CCN(Cc1ccccc1)C2 | 8.84% | 
35 | C#CCN(C)Cc1cc2cc(OC(=O)N(C)C)ccc2n1C | -0.33% | 
36 | Cl.ClCCN1CCCC1 | 9.27% | 
37 | COc1ccc(C=C(C#N)C#N)cc1OC | 21.06% | 
38 | C#CCN(C)Cc1cc2cc(OCCCC3CCN(Cc4ccc(OC(=O)N(C)C)c5ncccc45)CC3)ccc2n1C | 9.7% | 
39 | COc1ccc2c(c1)cc(C[N+](C)(C)C)n2C.[I-] | 43.59% | 
